# Hit rate of the full screen: of about 420,000 compounds, about 50,000 (12%) were called active. Inconclusive means that the source gave no clear call. Such entries were picked first, then a sample of the others. The call rests on the fitted dose curve; in most records, active means well fitted inhibition curve with a large enough effect; inconclusive means small, poorly fitted or top-dose-only effect; inactive means flat fitted curve, though single readings scatter. Potencies of inconclusive entries are left out as doubtful fits.
# Assay: qHTS for Inhibitors of human tyrosyl-DNA phosphodiesterase 1 (TDP1): qHTS in cells in presence of CPT; further: nearly all actives have a fitted effect of over 55% in size
# Conditions: chicken DT40 Tdp1-/-;hTDP1 cells + 20 nM CPT, ATP luminescence, 48 h; activity change, negative = growth inhibition: at 46.2 µM (top of the series) unless noted
# Summary of the method: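 Chicken DT40 Tdp1-/- cells complemented with human TDP1, 400 cells/well, exposed to compounds plus 20 nM camptothecin for at least 48 h at 37 C; viability read as ATP content by CellTiter-Glo luminescence.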
# On the % scale 0 is the no-effect control and ±100 the full control effect; potency means the concentration at half of the fitted maximal effect; tags describe the fitted curve by direction and shape.
Structure (SMILES),"activity change, negative = growth inhibition",Potency
CC12C(=O)N(c3nccs3)C(=O)C1(C)C1CCC2O1 (stereo not given),inactive: -12.7%,–
CCc1cccc(NC(=O)COC(=O)c2cn(CC)c3nc(C)ccc3c2=O)c1,inactive: -10.6%,–
Cc1cccc(Cl)c1NC(=S)N1CCN(c2ccc([N+](=O)[O-])cn2)CC1,–,"inconclusive [inhibitor, partial curve]"
COc1cc(C(=O)NCC(c2ccco2)N2CCCC2)ccc1OCc1ccccc1 (stereo not given),–,"inconclusive [inhibitor, single point]"
COC(=O)CC1(C(=O)OC)Oc2ccc(Br)cc2C(=O)N1c1cccc(Cl)c1Cl (stereo not given),–,active: 3.66 µM
COc1ccc(/C=C2\Sc3ccc(C(=O)NCC4CCCO4)cc3N(C)C2=O)cc1 (stereo not given),–,"inconclusive [inhibitor, single point]"
CC1=NN(c2ccccc2)C(=O)/C1=C\C=C1/N(C)c2ccccc2C1(C)C,–,"inconclusive [inhibitor, single point]"
CCn1cc(C(=O)NC2CCCCCC2)c(=O)c2cc(S(=O)(=O)N3CCCCC3)ccc21,–,active: 29.1 µM
Cc1ccc(S(=O)(=O)N(Cc2ccc(C(F)(F)F)cc2)C(=O)N2CCN(C)CC2)cc1,inactive: -0.309%,–
COc1ccc(OCCN2CCCC2)cc1Nc1nnc(Cl)c(Nc2ccccc2S(C)(=O)=O)n1,–,"inconclusive [inhibitor, single point]"
O=C(CN1CCN(C(=O)c2ccco2)CC1)Nc1ccc2c(c1)OCO2,inactive: 9.66%,–
Cc1ccc(NC(=S)N(CCC(C)C)C(C)c2ccncc2)c(Cl)c1 (stereo not given),inactive: -30%,–
COc1ccccc1C(=O)Nc1ccccc1OCc1cc(=O)n2c(C)csc2n1,–,"inconclusive [inhibitor, single point]"
COc1ccccc1-c1oc2ccccc2c(=O)c1O,–,"inconclusive [inhibitor, single point]"
CCOC(=O)C1=CCN(S(=O)(=O)c2ccc(C)cc2)C1c1ccc(C(C)C)cc1 (stereo not given),–,active: 18.4 µM
O=C(CSc1nc2c(sc3ccccc32)c(=O)n1Cc1ccccc1)NCC1CCCO1 (stereo not given),–,"inconclusive [inhibitor, single point]"
Cc1cc(O)c(C(C)C)cc1NC(=S)Nc1cc(C(C)C)c(O)cc1C,–,"inconclusive [inhibitor, partial curve, poor fit]"
COc1ccc2ccccc2c1CNCCN1CCOCC1,inactive: -20.6%,–
COc1ccc(/C=C/c2ccccn2)cc1OC,–,"inconclusive [inhibitor, single point]"
O=C(NCCc1ccccc1)C1CCCN1S(=O)(=O)c1ccc(Cl)cc1 (stereo not given),inactive: -27.4%,–

# — PubChem BioAssay AID686979 (National Center for Advancing Translational Sciences (NCATS), 2013)
